Data taken from PubChem BioAssay AID360 (National Center for Advancing Translational Sciences (NCATS), 2006).
The campaign covered roughly 48,000 compounds. About 550 (1.1%) were called active. Not shown: some 4% with an inconclusive outcome. No stated cut-off is given here; in the data, active means potency below about 15 µM; inconclusive means mostly about 16 µM to 33 µM; inactive means weaker than that. The list shows a part of the results.

The molecules below were run against Lysosomal acid glucosylceramidase (Homo sapiens) (UniProt P04062) (assay: Glucocerebrosidase). Details: purified enzyme, resorufin glucoside fluorescence (screen aimed at inhibitors), 20 min.
UniProt P04062, sequence (P04062 whole entry, looked up): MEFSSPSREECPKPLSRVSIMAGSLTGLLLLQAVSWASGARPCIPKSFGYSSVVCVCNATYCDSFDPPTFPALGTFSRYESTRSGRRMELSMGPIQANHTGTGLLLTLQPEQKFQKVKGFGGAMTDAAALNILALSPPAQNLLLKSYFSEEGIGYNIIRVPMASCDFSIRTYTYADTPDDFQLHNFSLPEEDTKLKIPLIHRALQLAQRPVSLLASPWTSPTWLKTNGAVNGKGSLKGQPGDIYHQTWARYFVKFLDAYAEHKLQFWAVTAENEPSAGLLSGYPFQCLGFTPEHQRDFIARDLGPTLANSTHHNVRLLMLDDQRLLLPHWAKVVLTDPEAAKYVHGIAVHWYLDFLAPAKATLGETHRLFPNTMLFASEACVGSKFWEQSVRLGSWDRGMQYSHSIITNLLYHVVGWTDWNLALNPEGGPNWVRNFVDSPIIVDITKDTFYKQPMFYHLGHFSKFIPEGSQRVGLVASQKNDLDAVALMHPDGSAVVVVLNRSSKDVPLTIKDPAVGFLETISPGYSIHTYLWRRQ
Method in brief: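 Wild-type enzyme at 0.2 nM final in 50mM citric acid/KH2PO4, 10mM sodium taurocholate, 0.01% tween-20, pH 5.9, with resorufin beta-D-glucopyranoside at 30 uM final. Compounds titrated, 20 min at RT, red fluorescence read; AC50 from titration.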
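Further: the screen sought inhibitors.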
Potency means the concentration at half of the fitted maximal effect.

Potency, inactive:
CCOC(=O)c1c(C)[nH]c(C(=O)C(C)OC(=O)c2cccc(OCc3c(C)noc3C)c2)c1C (centres undefined) > 76.9 µM
FC(F)(F)c1nnc2ccc(NCn3nnc4ccccc43)nn12 > 76.9 µM
CC(=O)c1cccc(NS(=O)(=O)N(C)C)c1 > 76.9 µM
COc1ccc(C)cc1NC(=O)c1[nH]c(C)c(C(C)=O)c1C > 76.9 µM
CCOC(=O)c1cccc(S(=O)(=O)N(CCO)Cc2cc3cc(OC)c(OC)cc3[nH]c2=O)c1 > 76.9 µM
O=C(NCc1ccco1)c1noc2c1CCCCC2 > 76.9 µM
O=C(COc1ccc(Cl)cc1)NC1CCSC1=O (centres undefined) > 76.9 µM
NC(=O)CS(=O)(=O)c1nc2ccccc2n1CC(=O)N1CCCCC1 > 76.9 µM
CC(C)CC(c1nnnn1Cc1ccco1)N1CCN(c2cccc(Cl)c2)CC1 (centres undefined) > 76.9 µM
Cc1ccc(-c2nc3ncccn3c2NC(=O)C2CC2)cc1 > 76.9 µM
COc1ccc(CNS(=O)(=O)c2ccc(C3CNC(=O)C3)cc2)cc1 (centres undefined) > 76.9 µM
CCOc1cc(-c2ccccc2)nc(N)n1 > 76.9 µM
COc1cc(NC(=O)CSCc2cnn(-c3ccccc3)c2-n2cccc2)cc(OC)c1 > 76.9 µM
CC(C)(C)n1nnnc1CN(Cc1ccco1)Cc1cc2cc3c(cc2[nH]c1=O)OCO3 > 76.9 µM
COc1ccc(C(=O)OCCN2CCOCC2)cc1OC > 76.9 µM
O=C(Cc1cccs1)NCc1ccccc1 > 76.9 µM
COc1cccc(C(=O)N2CCN(C(=O)c3cccc(F)c3)CC2)c1 > 76.9 µM
CSc1nc(C)c(C(=O)Nc2ccccc2)c(C)c1C#N > 76.9 µM
COCCn1nnnc1C(CC(C)C)N1CCN(c2cccc(OC)c2)CC1 (centres undefined) > 76.9 µM
CCOC(=O)c1c(NC(C)=O)no[n+]1[O-] > 76.9 µM
O=C(NCCc1c[nH]c2ccccc12)C1Cc2ccccc2CN1C(=O)c1ccco1 (centres undefined) > 76.9 µM
CCn1ccc(C(=O)Nc2ccc(N(C)C(C)=O)cc2)n1 > 76.9 µM
CC(O)/C=C/c1cccc[n+]1C (centres undefined) > 76.9 µM
CC(C)C(NC(=O)c1cccc(S(=O)(=O)N2CCOCC2)c1)C(=O)NCCc1ccccn1 (centres undefined) > 76.9 µM
O=C(NCC(=O)N(CC1CCCO1)C(C(=O)NC1CCCCC1)c1ccc(F)cc1)c1ccco1 (centres undefined) > 76.9 µM
CCOC(=O)C1CCN(C(=O)CCNC(=O)c2cc(OC)c(OC)c(OC)c2)CC1 > 76.9 µM
Brc1cc2c(cc1COc1ccc(-c3nn[nH]n3)cc1)OCO2 > 76.9 µM
O=C(NCc1cccs1)[C@@H]1CSC2c3ccccc3C(=O)N21 (some centres undefined)
Cc1occc1-c1nnc(SCC(=O)c2cc3ccccc3oc2=O)o1 > 76.9 µM
O=C(O)Cn1c2c(c3ccccc31)CCCC2 > 76.9 µM
COc1ccc(-c2cc(N3CCCC3)n3ncnc3n2)cc1 > 76.9 µM
COc1ccc(N2C(=O)NC3CC2(C)Oc2ccc(Br)cc23)cc1OC (centres undefined) > 76.9 µM
O=C(C1CCCO1)N(Cc1ccccc1)c1ccccc1 (centres undefined) > 76.9 µM
C=CCNC(=O)C(C#N)c1nc2ccccc2nc1N1CCN(Cc2ccccc2)CC1 (centres undefined) > 76.9 µM
CCOC(=O)COc1ccc(S(=O)(=O)N2CCc3ccccc3C2)cc1 > 76.9 µM
COc1ccc(C2CC(c3ccc(OC)cc3)n3nc(NC(=O)c4ccco4)nc3N2)cc1 (centres undefined) > 76.9 µM
COc1ccc(N2C(=O)C(CC(=O)Nc3ccccc3)N(Cc3ccc4c(c3)OCO4)C2=O)cc1 (centres undefined) > 76.9 µM
O=C(O)Cn1c(P(=O)(O)c2ccccc2)nc2ccccc21 > 76.9 µM
O=C1CC(c2ccc(Cl)cc2)n2nc(N3C(=O)c4ccccc4C3=O)nc2N1 (centres undefined) > 76.9 µM
COc1ccccc1N1C(=O)CC(Nc2ccc(N3CCOCC3)cc2)C1=O (centres undefined) > 76.9 µM
COc1ccc(-c2cc(C(F)(F)F)nc(SCC(=O)N3CCOCC3)n2)cc1OC > 76.9 µM
CCC(=O)Nc1ccc(C(=O)Nc2ccc3c(c2)C(=O)N(CC2CCCO2)C3=O)cc1 (centres undefined) > 76.9 µM
Cc1ccc2nc(NCCCNC(=O)c3cnccn3)c(C#N)cc2c1
CC(C)(C)c1nc2scc(-c3cccs3)c2c(=O)o1
C/[N+]([O-])=C1\Cc2ccccc2C1=O > 76.9 µM
Cc1ccc(C(C(=O)NC(C)(C)C)N(CC2CCCO2)C(=O)Cn2nnc(-c3ccc(C)o3)n2)cc1 (centres undefined) > 76.9 µM
O=C(CN1C(=O)C2CCCN2C(=O)c2ccccc21)Nc1ccccc1-n1cccc1 (centres undefined) > 76.9 µM
CC1CCN(C(=O)c2ccc(NS(C)(=O)=O)cc2)CC1 > 76.9 µM
O=C(c1cccs1)N1CCN(Cc2cccnc2)CC1 > 76.9 µM
O=C1c2ccccc2C(=O)N1Cc1nc2ccccc2o1 > 76.9 µM
CCC(=O)N1CCN(c2ccccc2NC(=O)c2cccc(C)c2)CC1 > 76.9 µM
O=C(NCCCN1CCN(CCCNC(=O)c2ccccc2F)CC1)c1ccccc1F > 76.9 µM
Cc1ccc(-c2nnn(CC(=O)N3CCCCC3)n2)c(-n2cnnn2)c1 > 76.9 µM
CCn1c(=O)c(C(=O)CN2CC(C)OC(C)C2)c(N)n(Cc2ccccc2)c1=O (centres undefined) > 76.9 µM
Cc1ccc(OC(C)C(=O)N2CCc3ccccc32)cc1 (centres undefined) > 76.9 µM
COc1ccc(-c2cc(C(=O)NCc3ccc(Cl)cc3)no2)cc1OC > 76.9 µM
CCOC(=O)C1CCN(C(=O)c2sc3nc(-c4ccccc4)cn3c2C)CC1 > 76.9 µM
C/C=C/CSc1nc2c(c(=O)[nH]c(=O)n2C)n1CCC > 76.9 µM
O=C1CC(C(=O)N(c2ccc(F)cc2)C(C(=O)NC2CCCC2)c2ccccn2)CS1 (centres undefined) > 76.9 µM
O=C(Nc1ccccc1F)c1ccncc1 > 76.9 µM
COC(=O)C1(S(=O)(=O)c2cccc3nsnc23)CC1 > 76.9 µM
CCCn1c(=O)n(C)c(=O)c2c3oc(=O)c(NC(=O)c4ccc(F)cc4)cc3[nH]c21 > 76.9 µM
Cc1cc(C)cc(NC(=O)C2CCN(S(=O)(=O)c3c(C)n[nH]c3C)CC2)c1 > 76.9 µM
CCOc1nc(-c2ccc(OC)cc2)ccc1-c1noc(C)n1 > 76.9 µM
COCCNC(=O)C(c1ccco1)N(C(=O)Cn1nnc2ccccc21)c1cccc(C)c1C (centres undefined) > 76.9 µM
COc1ccc(C2C(C(=O)NCC3CCCO3)CCC(=O)N2c2ccc3c(c2)OCO3)cc1 (centres undefined) > 76.9 µM
COCC(C)NC(=O)c1cc(-c2ccccc2OC)on1 (centres undefined) > 76.9 µM
COc1ccc(CN2CCCC(C(=O)N(C)Cc3ccccc3)C2)cc1OC (centres undefined) > 76.9 µM
CCOC(=O)c1[nH]c2ccc(OCC)cc2c1NC(=O)CN1CCN(c2ccccn2)CC1 > 76.9 µM
CCOC(=O)N1CCN(C(=O)CCn2nc(-c3ccc(Cl)cc3)ccc2=O)CC1 > 76.9 µM
CC(=O)c1cccc(-n2c(CCC(=O)O)ccc2-c2cccs2)c1 > 76.9 µM
CCSc1nnc(NC(=O)CSc2nc3c(c(=O)n2-c2ccccc2)SCC3)s1 > 76.9 µM
CCn1ncc2c1C(=O)NC1c3ccccc3C(=O)N21 (centres undefined)
COc1cccc(-c2nnc(N(C)C(=O)c3ccno3)s2)c1 > 76.9 µM
COCC(=O)NCCc1nc(-c2ccccc2)cs1 > 76.9 µM
CCC(C)[C@H](NC(=O)NCc1ccccc1)C(=O)O (some centres undefined) > 76.9 µM
CC1CCN(CCCNC(=O)c2cn(C)c3ccc(S(=O)(=O)N4CCCC4)cc3c2=O)CC1 > 76.9 µM
COc1ccc(N(CC(=O)Nc2ccc(S(=O)(=O)N3CCCC3)cc2)S(C)(=O)=O)cc1OC > 76.9 µM
CC1CCN(c2nc3c(c(=O)[nH]c(=O)n3C)n2CCSc2nc3ccccc3o2)CC1 > 76.9 µM
CCOC(=O)c1ccc(NC(=O)Nc2ccc3c(c2)OCCO3)cc1 > 76.9 µM
COC(=O)CSc1nnc([C@H](Cc2ccccc2)NC(=O)OC(C)(C)C)o1 > 76.9 µM
Nc1cc(=O)[nH]c(SCCNS(=O)(=O)c2ccccc2)n1 > 76.9 µM
Cc1ccc(C(C(=O)NC2CCCC2)N(Cc2ccc(F)cc2)C(=O)c2csnn2)o1 (centres undefined) > 76.9 µM
Nc1cccc(C(=O)Nc2ccco2)c1 > 76.9 µM
Cc1cc(C(=O)COC(=O)c2cccs2)c(C)n1-c1c(C)n(C)n(-c2ccccc2)c1=O > 76.9 µM
O=C(NCCc1c[nH]c2ccccc12)c1c(Cl)nc2sccn12 > 76.9 µM
Cc1c(-n2c(SCC(=O)O)nnc2-c2ccccc2Cl)c(=O)n(-c2ccccc2)n1C > 76.9 µM
Clc1ccc(COn2nnc3ccccc32)c(Cl)c1 > 76.9 µM
CC(C)(C)C(=O)/C=c1\[nH]c(=O)/c(=C\c2ccc(C#N)cc2)s1 > 76.9 µM
